Experimental data reported in PubChem BioAssay AID624296 (National Center for Advancing Translational Sciences (NCATS), 2012).
Several values for one entry are separate records, joined by “and”; a condition that tells them apart may be missing. Identical values can stand only once. Hit rate of the full screen: of about 350,000 compounds, about 9,900 (2.8%) were called active. Inconclusive means that the source gave no clear call. Such entries were picked first, then a sample of the others. Calls come from the whole dose curve; as a rule, active = well fitted activation curve with a large enough effect; inconclusive = small, poorly fitted or top-dose-only effect; inactive = no such curve, though single readings can be large or run the other way. Potencies beside an inconclusive call are fits to weak or partial responses and may not hold up.

Test: A quantitative high throughput screen for small molecules that induce DNA re-replication in MCF 10a normal breast cells. Note: nearly all actives have a fitted effect of over 50% in size.
Settings: MCF 10A DNA re-replication, Hoechst nuclear intensity, 48 h; series mostly up to 46.1 µM
Potency is the fitted concentration of half-maximal effect; tags give direction and shape of the fitted curve.

**Q.** Which Potency does the source give for `CCOC(=O)c1ccc(Nc2nc(=O)c3cccnc3s2)cc1` here?
**A.** inconclusive: 5.17 µM [activator, full curve]

**Q.** For `O=C(COc1ccccc1F)NC12CC3CC(CC(C3)C1)C2`, which Potency is on record?
**A.** inconclusive: 16.4 µM [activator, partial curve, poor fit]

**Q.** For `Cc1cc(C(=O)N/N=C/c2cc(Cl)cc([N+](=O)[O-])c2O)c2ccccc2n1`, which Potency is on record?
**A.** inconclusive: 14.6 µM [activator, partial curve]

**Q.** With `S=C(NCCCN1CCOCC1)Nc1ccc(Cl)cc1` as the compound, how does the Potency read?
**A.** inconclusive: 3.66 µM [activator, single point]

**Q.** With `O=C(NCc1cccnc1)c1ccc(COc2ccc3c(c2)CCC3)o1` as the compound, how does the Potency read?
**A.** inconclusive: 0.0058 µM [activator, full curve, poor fit]

**Q.** Which Potency does the source give for `NC(=S)N/N=C/c1c(O)ccc2ccccc12` here?
**A.** inconclusive: 18.4 µM [activator, single point]

**Q.** With `O=C(Nc1cc2c3c(c1)CC(=O)N3CCC2)c1ccco1` as the compound, how does the Potency read?
**A.** inactive

**Q.** For `CC(NC(=O)c1ccc(C(C)(C)C)cc1)C(c1cccs1)N1CCOCC1` (stereo not given), which Potency is on record?
**A.** inconclusive: 18.4 µM [activator, partial curve, poor fit]

**Q.** With `CCOC(=O)c1cc2c(ccn2C)n1CC(=O)N1CCC(Cc2ccccc2)CC1` as the compound, how does the Potency read?
**A.** inconclusive: 29.1 µM [activator, single point]

**Q.** With `CN(CC(=O)Nc1cccc(F)c1)CC(=O)N1CCc2ccccc21` as the compound, how does the Potency read?
**A.** inconclusive: 20.6 µM [activator, partial curve, poor fit]

**Q.** For `O=C(NNc1ccccc1)C(CCO)C(=O)NNc1ccccc1`, which Potency is on record?
**A.** active: 11.6 µM

**Q.** For `O=C(C1CC1)N(CCc1ccccc1)Cc1nc2ccccc2c(=O)[nH]1`, which Potency is on record?
**A.** inactive

**Q.** For `CCCc1cc(NCCCO)n2c(nc3ccccc32)c1C#N`, which Potency is on record?
**A.** inconclusive: 8.2 µM [activator, partial curve, poor fit]

**Q.** With `C[C@H]1CN([C@@H](C)CO)C(=O)Cc2cc(NC(=O)CCC(F)(F)F)ccc2O[C@H]1CN(C)CC1CC1` as the compound, how does the Potency read?
**A.** inconclusive: 4.61 µM [activator, partial curve, poor fit]

**Q.** Which Potency does the source give for `COCCN(Cc1cc2c(C)cc(C)cc2nc1Cl)C(=O)c1ccccc1F` here?
**A.** inconclusive: 6.51 µM [activator, single point]

**Q.** With `CCN(CC)C(=O)[C@H]1C[C@H](CC(=O)NCc2ccco2)C(=O)N2CCc3c([nH]c4ccc(Cl)cc34)[C@]12C` as the compound, how does the Potency read?
**A.** inconclusive: 5.8 µM [activator, full curve, poor fit]

**Q.** With `C=C1CCC2C(C)(C)[C@H](O)CC[C@@]2(C)[C@@H]1COc1cc(=O)oc2ccccc12` (stereo not given in full) as the compound, how does the Potency read?
**A.** inconclusive: 29.1 µM [activator, single point]

**Q.** Which Potency does the source give for `Cc1c(Cl)c(C(=O)NNC(=S)Nc2ccccc2)nn1C` here?
**A.** inconclusive: 25.9 µM [activator, single point]

**Q.** Which Potency does the source give for `Cc1ccc(Cl)cc1NC(=S)N1CCCCCC1` here?
**A.** inactive

**Q.** Which Potency does the source give for `COCC(C)NC(=S)NCCc1ccc(Cl)cc1Cl` (stereo not given) here?
**A.** inconclusive: 18.4 µM [activator, single point]

**Q.** Which Potency does the source give for `CCN(CC)CCN(Cc1cc2ccc(C)c(C)c2[nH]c1=O)C(=S)NCc1ccco1` here?
**A.** inconclusive: 16.4 µM [activator, single point]

**Q.** Which Potency does the source give for `COc1ccccc1CNC(=O)CN1C(=O)NC2(CCOc3ccccc32)C1=O` (stereo not given) here?
**A.** inactive

**Q.** For `COc1ccc(S(=O)(=O)Nc2ccc(O)c(Sc3nc4ccccc4s3)c2)cc1`, which Potency is on record?
**A.** inconclusive: 29.1 µM [activator, single point]

**Q.** Which Potency does the source give for `Cc1ccnc(N(C(=O)Nc2ccccc2)C2=NCC(C)(C)S2)c1` here?
**A.** inconclusive: 18.4 µM [activator, single point]

**Q.** Which Potency does the source give for `Cc1ccc(C(=O)Nc2ncc(Cc3ccccc3)s2)o1` here?
**A.** inconclusive: 2.31 µM [activator, full curve]

**Q.** With `CC1(C)CC(=O)c2cnn(-c3nc4ccccc4[nH]3)c2C1` as the compound, how does the Potency read?
**A.** inconclusive: 18.4 µM [activator, single point]

**Q.** For `O=C(/C=C/c1ccc(S(=O)(=O)NCc2ccco2)cc1)NCc1cccc(Cl)c1`, which Potency is on record?
**A.** inconclusive: 29.1 µM [activator, single point]

**Q.** For `Cc1ccc(C(C)C)c(OCC(=O)Nc2ccc3c(c2)nc(CCN2CCCCC2)n3C)c1`, which Potency is on record?
**A.** inconclusive: 20.6 µM [activator, single point]

**Q.** Which Potency does the source give for `N#Cc1ccccc1COc1cccc2c1CCCC2O` (stereo not given) here?
**A.** inconclusive: 25.9 µM [activator, partial curve, poor fit]

**Q.** Which Potency does the source give for `CCOc1c(Br)cc(C2NS(=O)(=O)N=C3CCCCCN32)cc1OC` (stereo not given) here?
**A.** inactive

**Q.** With `O=C(Nc1nc(-c2cccs2)c(C(=O)C(F)(F)F)s1)c1ccccc1` as the compound, how does the Potency read?
**A.** inconclusive: 20.6 µM [activator, single point]

**Q.** Which Potency does the source give for `CC1(C)Cc2nc(Cl)c(C(=O)O)cc2CO1` here?
**A.** inconclusive: 3.26 µM [activator, partial curve]

**Q.** For `O=C(CSc1nc2nn(-c3ccccc3)c(=O)c-2c2n1CCCCC2)Nc1ccc(F)cc1F`, which Potency is on record?
**A.** inactive

**Q.** Which Potency does the source give for `O=C(O)c1cccc(NC(=O)c2cn(-c3ccccc3)nc2-c2cc3ccccc3o2)c1` here?
**A.** inconclusive: 6.51 µM [activator, partial curve, poor fit]

**Q.** Which Potency does the source give for `CCC(C)Nc1cc(C)c(C#N)c2nc3ccccc3n12` (stereo not given) here?
**A.** inconclusive: 23.1 µM [activator, single point]

**Q.** Which Potency does the source give for `Cc1ccc(/C=N/NC(=O)c2cccc([N+](=O)[O-])c2)o1` here?
**A.** inactive

**Q.** For `CC(C)c1ccc(O)c(N)c1`, which Potency is on record?
**A.** inconclusive: 29.1 µM [activator, single point]

**Q.** For `O=C(NCCc1ccccc1)C(=O)NCCC1CCCCN1S(=O)(=O)c1cccs1` (stereo not given), which Potency is on record?
**A.** inactive

**Q.** With `CCSc1nc2c(c(=O)n1CC)SC(C)C2` (stereo not given) as the compound, how does the Potency read?
**A.** inconclusive: 14.6 µM [activator, partial curve, poor fit]

**Q.** Which Potency does the source give for `CCCCN(C1CCS(=O)(=O)C1)S(=O)(=O)c1cccs1` (stereo not given) here?
**A.** inconclusive: 0.58 µM [activator, single point]

**Q.** For `Nc1cc2nsnc2cc1Br`, which Potency is on record?
**A.** inconclusive: 20.6 µM [activator, single point]

**Q.** Which Potency does the source give for `O=C(NCc1cccc(C(F)(F)F)c1)c1cccc2c1C(=O)c1ccc(N3CCC(Cc4ccccc4)CC3)cc1S2(=O)=O` here?
**A.** active: 5.8 µM

**Q.** For `O=C(CCCN1C(=O)/C(=C/c2ccccc2)SC1=S)Nc1ccc(O)cc1`, which Potency is on record?
**A.** inconclusive: 29.1 µM [activator, single point]

**Q.** With `CCOc1cc(CNCc2ccccn2)ccc1OCC(=O)NC1CCCCC1` as the compound, how does the Potency read?
**A.** inactive

**Q.** Which Potency does the source give for `O=C(Nc1ccc(CN2CCOCC2)cc1)c1ccccc1F` here?
**A.** inactive

**Q.** For `CN=C(NC(=O)Nc1c(C)cccc1C)NC(=O)Nc1c(C)cccc1C`, which Potency is on record?
**A.** inactive

**Q.** For `Cc1ccc(C(=O)CC(=O)c2ccc(C)cc2O)cc1`, which Potency is on record?
**A.** inactive

**Q.** Which Potency does the source give for `COc1ccc2[nH]c(=O)c(CN(C(=O)NC3CCCCC3)C3CCCC3)cc2c1` here?
**A.** inconclusive: 29.1 µM [activator, single point]

**Q.** Which Potency does the source give for `CCCCC(=O)NC(c1ccc([N+](=O)[O-])cc1)c1c(O)ccc2ccccc12` (stereo not given) here?
**A.** inconclusive: 23.1 µM [activator, single point]

**Q.** With `Cc1cc[n+](-c2nc([O-])sc2/C=N/Nc2ccc([N+](=O)[O-])cc2)cc1` as the compound, how does the Potency read?
**A.** inconclusive: 10.3 µM [activator, partial curve, poor fit]

**Q.** For `COc1cc(NC(=O)c2ccc(C)cc2)c(OC)cc1NC(=O)CN1CCCCC1`, which Potency is on record?
**A.** inconclusive: 25.9 µM [activator, single point]

**Q.** With `CCOC(=O)Nc1ccc2c(c1)N(C(=O)CCN1CCOCC1)c1ccccc1S2` as the compound, how does the Potency read?
**A.** inconclusive: 7.31 µM [activator, single point] and inconclusive: 32.6 µM [activator, partial curve, poor fit]

**Q.** For `CN(C)/C=C/c1onc(-c2c(F)cccc2Cl)c1C#N`, which Potency is on record?
**A.** inconclusive: 20.6 µM [activator, single point]

**Q.** With `CC1CN(C(=S)Nc2ccc(Br)cc2)CC(C)O1` (stereo not given) as the compound, how does the Potency read?
**A.** inconclusive: 32.6 µM [activator, partial curve, poor fit]

**Q.** For `O=C(/C(C=Nc1cc2c(oc1=O)CCCC2=O)=C(\O)c1ccccc1)c1ccccc1`, which Potency is on record?
**A.** inconclusive: 29.1 µM [activator, single point]

**Q.** With `COc1ccc(N=C2NC(=O)/C(=C\c3ccco3)S2)cc1` as the compound, how does the Potency read?
**A.** inconclusive: 18.4 µM [activator, single point]

**Q.** Which Potency does the source give for `CC12CC3CC(C)(C1)CC(C(=O)N1CCCC1)(C3)C2` here?
**A.** inactive

**Q.** With `CC(=O)c1ccc(NC(=O)CN2C(=O)/C(=C/C=C/c3ccccc3)SC2=S)cc1` as the compound, how does the Potency read?
**A.** active: 10.3 µM

**Q.** With `CCOC(=O)c1c(CSc2ccc(C)cc2)n(C)c2cc(Br)c(O)c(CN(C)C)c12` as the compound, how does the Potency read?
**A.** inconclusive: 29.1 µM [activator, single point]

**Q.** Which Potency does the source give for `CC1=NN(C(=O)c2ccccc2)C(O)(c2ccc(Br)cc2)C1` (stereo not given) here?
**A.** inconclusive: 0.58 µM [activator, full curve, poor fit]

**Q.** Which Potency does the source give for `CC(C)C[C@@H](CO)N(Cc1ccccc1)S(=O)(=O)N(Cc1ccccc1)[C@@H](CO)CC(C)C` here?
**A.** inconclusive: 29.1 µM [activator, single point]

**Q.** With `O=C(c1ccccc1)N(c1ccccc1)c1nccc2ccccc12` as the compound, how does the Potency read?
**A.** inactive

**Q.** For `Cc1cc(C)cc(Oc2nc3c(C)cccn3c(=O)c2/C=C(\C#N)C(=O)NC2CCS(=O)(=O)C2)c1` (stereo not given), which Potency is on record?
**A.** inconclusive: 6.51 µM [activator, partial curve, poor fit]

**Q.** Which Potency does the source give for `CCOc1cc2[nH]c(=S)n(CCCOC)c(=O)c2cc1OCC` here?
**A.** inconclusive: 29.1 µM [activator, single point]

**Q.** With `CCc1cc(C(=O)N2CCN(c3ccccc3OC)CC2)sc1C` as the compound, how does the Potency read?
**A.** inconclusive: 29.1 µM [activator, single point]
